Experimental data published in a collection of fitness landscapes (doi:10.1126/science.1257360).
The other results are listed elsewhere or left out.

B1: PhoQ; a variant is named by its letters at X, in order, P23837 (parent)
chain: MKKLLRLFFPLSLRVRFLLATAAVVLVLSLAYGMVALIGYSVSFDKTTFRLLRGESNLFYTLAKWENNKLHVELPENIDKQSPTMTLIYDENGQLLWAQRDVPWLMKMIQPDWLKSNGFHEIEADVNDTSLLLSGDHSIQQQLQEVREDDDDAEMTHSVAVNVYPATSRMPKLTIVVVDTIPVELKSSYMVWSWFIYVLSANLLLVIPLLWVAAWWSLRPIEALAKEVRELEEHNRELLNPATTRELTSLVRNLNRLLKSERERYDKYRTTLTDLTHSLKTPLXXLQXXLRSLRSEKMSVSDAEPVMLEQISRISQQIGYYLHRASMRGGTLLSRELHPVAPLLDNLTSALNKVYQRKGVNISLDISPEISFVGEQNDFVEVMGNVLDNACKYCLEFVEISARQTDEHLYIVVEDDGPGIPLSKREVIFDRGQRVDTLRPGQGVGLAVAREITEQYEGKIVAGESMLGGARMEVIFGRQHSAPKDE

Variants of: B1
Test: enrichment ratio after two sorts for PhoP signalling (ratio (wild type AVST 3.29)); higher = more functional
Conditions: with PhoP (E. coli)

Row | Variant | enrichment ratio
1 | WFEP | ≤ 0.25
2 | VWIA | ≤ 0.25
3 | TIYG | 8.23
4 | EMLR | ≤ 0.25
5 | IFIT | ≤ 0.25
6 | GVSF | 11.8
7 | NMPN | ≤ 0.25
8 | IRYP | ≤ 0.25
9 | LWNV | ≤ 0.25
10 | YNVR | ≤ 0.25
11 | GHAN | ≤ 0.25
12 | LHVP | ≤ 0.25
13 | ICGR | ≤ 0.25
14 | QQMW | ≤ 0.25
15 | VVKP | ≤ 0.25
16 | TTVI | 6.62
17 | TDLT | 7.28
18 | KYDT | ≤ 0.25
19 | KTIQ | ≤ 0.25
20 | RPVP | ≤ 0.25
21 | EQRC | ≤ 0.25
22 | YDLA | ≤ 0.25
23 | RDCY | ≤ 0.25
24 | LRQL | ≤ 0.25

Row | Variant | enrichment ratio
25 | SRSI | ≤ 0.25
26 | PYQL | ≤ 0.25
27 | NYFG | ≤ 0.25
28 | EIQS | ≤ 0.25
29 | YYTQ | ≤ 0.25
30 | VLKH | ≤ 0.25
31 | EGVK | ≤ 0.25
32 | MNIR | ≤ 0.25
33 | LIQP | ≤ 0.25
34 | KPAT | ≤ 0.25
35 | VFWV | ≤ 0.25
36 | SFFY | ≤ 0.25
37 | CEIP | ≤ 0.25
38 | WLDD | ≤ 0.25
39 | HTDK | ≤ 0.25
40 | PGDS | ≤ 0.25
41 | MAKI | ≤ 0.25
42 | PIYM | ≤ 0.25
43 | ATDD | ≤ 0.25
44 | SPRV | ≤ 0.25
45 | KDFR | ≤ 0.25
46 | MLDR | ≤ 0.25
47 | IKKR | ≤ 0.25
48 | NGYT | ≤ 0.25

Row | Variant | enrichment ratio
49 | TWEC | ≤ 0.25
50 | SDYR | ≤ 0.25
51 | EFTY | ≤ 0.25
52 | PTLL | ≤ 0.25
53 | HNQC | ≤ 0.25
54 | GWPG | ≤ 0.25
55 | EDID | ≤ 0.25
56 | RYIH | ≤ 0.25
57 | NMDH | ≤ 0.25
58 | QVVN | ≤ 0.25
59 | NSQM | ≤ 0.25
60 | NEDG | ≤ 0.25
61 | YPYA | ≤ 0.25
62 | TLPK | ≤ 0.25
63 | TTHI | 11.5
64 | EINV | ≤ 0.25
65 | FIRI | ≤ 0.25
66 | HLNK | ≤ 0.25
67 | DFTV | ≤ 0.25
68 | KAMH | ≤ 0.25
69 | EYAS | ≤ 0.25
70 | MFND | ≤ 0.25
71 | GFLW | ≤ 0.25
72 | EFFN | ≤ 0.25

Row | Variant | enrichment ratio
73 | TVAM | 6.16
74 | VEGV | ≤ 0.25
75 | YDVR | ≤ 0.25
76 | RADP | ≤ 0.25
77 | IIIL | ≤ 0.25
78 | VPHM | ≤ 0.25
79 | IQVF | ≤ 0.25
80 | TCIT | ≤ 0.25
81 | DALQ | ≤ 0.25
82 | LIIP | ≤ 0.25
83 | HNAK | ≤ 0.25
84 | HSTD | ≤ 0.25
85 | QLQK | ≤ 0.25
86 | QFPT | ≤ 0.25
87 | HRKT | ≤ 0.25
88 | SCTP | ≤ 0.25
89 | RLIR | ≤ 0.25
90 | RKTT | ≤ 0.25
91 | GWVV | ≤ 0.25
92 | KSTS | ≤ 0.25
93 | YIMP | ≤ 0.25
94 | TDVD | ≤ 0.25
95 | KSNP | ≤ 0.25
96 | HWPK | ≤ 0.25

Row | Variant | enrichment ratio
97 | VMAI | ≤ 0.25
98 | MSDN | ≤ 0.25
99 | FGWP | ≤ 0.25
100 | VEFG | 1.06
101 | FDMC | ≤ 0.25
102 | GHYW | ≤ 0.25
103 | DQYC | ≤ 0.25
104 | RISF | ≤ 0.25
105 | DMVG | ≤ 0.25
106 | HSRR | ≤ 0.25
107 | FMKD | ≤ 0.25
108 | QEMC | ≤ 0.25
109 | RSPK | ≤ 0.25
110 | MHLC | ≤ 0.25
111 | MFKT | ≤ 0.25
112 | ICDN | ≤ 0.25
113 | ENKT | ≤ 0.25
114 | FTEP | ≤ 0.25
115 | TNDF | ≤ 0.25
116 | FKCL | ≤ 0.25
117 | DYPW | ≤ 0.25
118 | MLFE | ≤ 0.25
119 | WSGW | ≤ 0.25
120 | PAAK | ≤ 0.25

Row | Variant | enrichment ratio
121 | SSYY | 0.922
122 | NIWI | ≤ 0.25
123 | DRCC | ≤ 0.25
124 | WFYC | ≤ 0.25
125 | HEAE | ≤ 0.25
126 | VTGS | ≤ 0.25
127 | HTFC | ≤ 0.25
128 | NMVE | ≤ 0.25
129 | YGIH | ≤ 0.25
130 | RHMM | ≤ 0.25
131 | PTQM | ≤ 0.25
132 | SLFF | ≤ 0.25
133 | MRGP | ≤ 0.25
134 | THTI | 6.67
135 | DHPP | ≤ 0.25
136 | REMS | ≤ 0.25
137 | VDAD | ≤ 0.25
138 | HDDA | ≤ 0.25
139 | AKAG | ≤ 0.25
140 | WMAQ | ≤ 0.25
141 | HHFQ | ≤ 0.25
142 | TITK | 4.14
143 | DHKA | ≤ 0.25
144 | VFVN | ≤ 0.25

Row | Variant | enrichment ratio
145 | TVMW | ≤ 0.25
146 | FMKK | ≤ 0.25
147 | NLND | ≤ 0.25
148 | FTEQ | ≤ 0.25
149 | YGCH | ≤ 0.25
150 | ADLA | 0.619
151 | MIVS | ≤ 0.25
152 | SSMP | ≤ 0.25
153 | PRTK | ≤ 0.25
154 | WWGF | ≤ 0.25
155 | IHFS | ≤ 0.25
156 | QTKS | ≤ 0.25
157 | FRQR | ≤ 0.25
158 | PDNT | ≤ 0.25
159 | ARGG | ≤ 0.25
160 | AWVE | ≤ 0.25
161 | PWWT | ≤ 0.25
162 | EEMV | ≤ 0.25
163 | LDPN | ≤ 0.25
164 | TCTT | 9.19
165 | IGAG | ≤ 0.25
166 | HHWH | ≤ 0.25
167 | KETY | ≤ 0.25
168 | FYHD | ≤ 0.25

Row | Variant | enrichment ratio
169 | MVGE | ≤ 0.25
170 | TQCE | 87.9
171 | TKFP | ≤ 0.25
172 | SDST | 2.41
173 | VCAF | ≤ 0.25
174 | DMDF | ≤ 0.25
175 | EYYS | ≤ 0.25
176 | GHEN | ≤ 0.25
177 | DMHC | ≤ 0.25
178 | YSEN | ≤ 0.25
179 | PSGN | ≤ 0.25
180 | DFWC | ≤ 0.25
181 | LSPG | ≤ 0.25
182 | HYQL | ≤ 0.25
183 | EPCH | ≤ 0.25
184 | RERY | ≤ 0.25
185 | TCDR | ≤ 0.25
186 | YWVW | ≤ 0.25
187 | STCL | 15.7
188 | DQPS | ≤ 0.25
189 | EDCQ | ≤ 0.25
190 | VRPF | ≤ 0.25
191 | YRGK | ≤ 0.25
192 | SEVL | 8.66

Row | Variant | enrichment ratio
193 | PGDG | ≤ 0.25
194 | HTVM | ≤ 0.25
195 | ILQV | ≤ 0.25
196 | RPDA | ≤ 0.25
197 | PLFA | ≤ 0.25
198 | TSQN | 4.91
199 | LCRT | ≤ 0.25
200 | FPHM | ≤ 0.25
201 | YYFQ | ≤ 0.25
202 | DTYC | ≤ 0.25
203 | FQPI | ≤ 0.25
204 | GQYD | ≤ 0.25
205 | TTLC | 14.4
206 | NEKL | ≤ 0.25
207 | PVCN | ≤ 0.25
208 | DEPF | ≤ 0.25
209 | FIMP | ≤ 0.25
210 | NARM | 0.579
211 | HGPV | ≤ 0.25
212 | GRSV | ≤ 0.25
213 | MVLF | 4.35
214 | YDWH | ≤ 0.25
215 | AMHM | ≤ 0.25
216 | DISN | ≤ 0.25

Row | Variant | enrichment ratio
217 | VMLG | ≤ 0.25
218 | AKLE | ≤ 0.25
219 | MWFG | ≤ 0.25
220 | LCHW | ≤ 0.25
221 | TEFR | ≤ 0.25
222 | DGEG | ≤ 0.25
223 | HSVE | ≤ 0.25
224 | DANF | ≤ 0.25
225 | RYGC | ≤ 0.25
226 | LMRD | ≤ 0.25
227 | ANVQ | ≤ 0.25
228 | TAWH | ≤ 0.25
229 | NPLS | ≤ 0.25
230 | LRGD | ≤ 0.25
231 | GFFA | ≤ 0.25
232 | HSIL | 2.64
233 | FCNI | ≤ 0.25
234 | VFIN | ≤ 0.25
235 | NSFV | ≤ 0.25
236 | AFWM | ≤ 0.25
237 | LRRP | ≤ 0.25
238 | VGKY | ≤ 0.25
239 | MQEM | ≤ 0.25
240 | DIFD | ≤ 0.25

Row | Variant | enrichment ratio
241 | QHYP | ≤ 0.25
242 | RVPF | ≤ 0.25
243 | WERQ | ≤ 0.25
244 | EDGP | ≤ 0.25
245 | NHYP | ≤ 0.25
246 | KVEF | ≤ 0.25
247 | IKCW | ≤ 0.25
248 | DSNN | ≤ 0.25
249 | DHGA | ≤ 0.25
250 | GFFT | ≤ 0.25
251 | WYRF | ≤ 0.25
252 | KSSV | ≤ 0.25
253 | KFDH | ≤ 0.25
254 | GTMG | 1.66
255 | SWKP | ≤ 0.25
256 | HTWR | ≤ 0.25
257 | EYGS | ≤ 0.25
258 | YKSA | ≤ 0.25
259 | FPEM | ≤ 0.25
260 | SWNG | ≤ 0.25
261 | WDTQ | ≤ 0.25
262 | ICIE | ≤ 0.25
263 | THIR | ≤ 0.25
264 | RNAG | ≤ 0.25

Row | Variant | enrichment ratio
265 | WLHS | ≤ 0.25
266 | NRRY | ≤ 0.25
267 | KYID | ≤ 0.25
268 | GSKA | ≤ 0.25
269 | DEDP | ≤ 0.25
270 | VSTC | 0.337
271 | MFGF | ≤ 0.25
272 | SVGF | 9.01
273 | RTKI | ≤ 0.25
274 | QMAM | 0.936
275 | AHTH | ≤ 0.25
276 | NDDQ | ≤ 0.25
277 | GICK | 9.7
278 | FLLR | ≤ 0.25
279 | YDDV | ≤ 0.25
280 | AYER | ≤ 0.25
281 | FSFS | ≤ 0.25
282 | AHTN | ≤ 0.25
283 | MDPE | ≤ 0.25
284 | IAYM | ≤ 0.25
285 | QGHL | 18.3
286 | GMPN | ≤ 0.25
287 | DGDA | ≤ 0.25
288 | EPRM | ≤ 0.25

Row | Variant | enrichment ratio
289 | GDQC | ≤ 0.25
290 | GIHY | ≤ 0.25
291 | TGNH | 11
292 | WTAD | ≤ 0.25
293 | SHDV | ≤ 0.25
294 | VLAM | ≤ 0.25
295 | QHCL | ≤ 0.25
296 | LETL | ≤ 0.25
297 | ARYI | ≤ 0.25
298 | LHVW | ≤ 0.25
299 | AFDD | ≤ 0.25
300 | MPVR | 0.407
301 | DLTQ | ≤ 0.25
302 | GKLG | ≤ 0.25
303 | VLHS | ≤ 0.25
304 | DLIE | ≤ 0.25
305 | RHTP | ≤ 0.25
306 | KYPQ | ≤ 0.25
